Test results published in PubChem BioAssay AID602313 (National Center for Advancing Translational Sciences (NCATS), 2012).
The campaign covered roughly 390,000 compounds. About 760 (0.19%) were called active. Roughly 3% stayed inconclusive and do not appear here. Calls follow the shape of the dose curve; as a rule, active = well fitted inhibition curve with a large enough effect; inconclusive = small, poorly fitted or top-dose-only effect; inactive = flat fitted curve, though single readings scatter. The entries are a selection whose mix differs from that of the whole data set.

Test: qHTS for Inhibitors of Vif-A3F Interactions: qHTS; also: nearly all actives have a fitted effect of over 65% in size; as to activity, negative = active: % of control where 0% means no effect
Conditions: HeLa A3F-eYFP + Vif (tagged APOBEC3F with the HIV-1 protein that degrades it), YFP fluorescence increase; series mostly up to 46.1 µM; activity, negative = active: at the top concentration
In short: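 HeLa cells stably expressing Vif plus C-terminally eYFP-tagged A3F were seeded, incubated overnight at 37 deg C, dosed with compound, incubated overnight again at 37 deg C. Yellow fluorescence (Ex 488/Em 500-530) reported blocked Vif-mediated A3F-eYFP degradation.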
Potency is read from the fitted curve at half-maximal effect.

| Structure (SMILES) | activity, negative = active | Potency |
| --- | --- | --- |
| CCOC(=O)c1cc2c(=O)n3ccccc3nc2n(Cc2ccco2)c1=NC(=O)c1ccccc1OC | inactive: 1.92% |  |
| Nc1c(C(=O)NCc2ccc3c(c2)OCO3)nnn1CC(=O)Nc1ccc(Br)cc1 | inactive: -20.2% |  |
| CCCCCCSc1ccc([C@@H]2[C@H]3C(=O)N(C)C(=O)[C@H]3[C@]3(C(=O)OC)CCCCN23)cc1 | inactive: -9.6% |  |
| CC1=C(n2nnc3ccccc32)C(c2ccccc2)C(C#N)=C(N)O1 (stereo not given) |  | active: 25.1 µM |
| CCCCCCN1C[C@H](n2cc(-c3ccc(F)cc3)nn2)[C@@H](O)C[C@@H]1c1ccccc1 | inactive: -8.66% |  |
| COc1ccc(NC(=O)C(CC(C)C)NC(=O)C2CCCCC2)c(OC)c1 (stereo not given) | inactive: -9.65% |  |
| O=C(Nc1cccc(Cl)c1Cl)c1cc(S(=O)(=O)NCCc2ccccc2)ccc1F | inactive: -29% |  |
| CCOC(=O)C1=C(C)NC(C)=C(C(=O)OCC)C1C(=O)OCC(=O)N1c2ccccc2CC1C (stereo not given) | inactive: 1.41% |  |
| O=C(CSc1nc2c([nH]c3ccccc32)c(=O)n1-c1cccc(Cl)c1)N1CCOCC1 | inactive: -11.2% |  |
| COc1cc(NC(=O)c2cncc(-c3ccc(C#N)cc3)c2)cc(C(=O)Nc2cccc(C(F)(F)F)c2)c1 | inactive: -1.62% |  |
| O=C(Nc1cccc(F)c1)/C(=C/c1ccco1)NC(=O)c1ccco1 | inactive: 2.63% |  |
| Cc1ccoc1C(=O)N1CCCCC1C(=O)O (stereo not given) | inactive: 15.1% |  |
| CCCC(=O)NC(c1ccc(OC)cc1)c1ccc2cccnc2c1O (stereo not given) |  | active: 11.2 µM |
| C/C(=N\Nc1nc(C)cc(-c2ccccc2)n1)c1ccc(F)cc1 |  | active: 20 µM |
| CC1=C(C(=O)OCc2ccccc2)C(c2cccnc2)c2c(n(C)c(=O)n(C)c2=O)N1 (stereo not given) | inactive: -20.1% |  |
| CCOc1ccc(/C=C2\CCc3ccccc3C2=O)cc1 | inactive: 33.7% |  |
| COc1ccc(-c2cc(C)no2)cc1S(=O)(=O)N1CCOc2ccc(Cl)cc21 | inactive: 3.1% |  |
| CC1=CC(C)(C)NC(=S)N1c1cccc(C)c1 | inactive: 2.62% |  |
| CCOC(=O)/C=C1\SCC(=O)N1CC(=O)Nc1ccccc1OC(F)F | inactive: 2.46% |  |
| O=C1C(=Cc2ccccc2[N+](=O)[O-])Cc2ccccc21 |  | active: 12.6 µM |
| O=C(NCCN1C(=O)S/C(=C\c2cccnc2)C1=O)c1ccc(S(=O)(=O)N2CCCC2)cc1 | inactive: 6.8% |  |
| CNC(=O)c1sc(N2N=C3/C(=C\c4ccccc4)CCCC3C2c2ccccc2)nc1C (stereo not given) | inactive: -9.29% |  |
| OCCN1CCN(CC(O)COc2ccc3ccccc3c2)CC1 (stereo not given) | inactive: -0.267% |  |
| CC(=O)Nc1ccc(S(=O)(=O)NC2(C(F)(F)F)NC(=O)N(c3ccc(C)cc3)C2=O)cc1 (stereo not given) | inactive: -13.7% |  |
| N#C/C(=C\c1ccc([N+](=O)[O-])cc1)C(=O)Nc1ccccc1O | inactive: -23.2% |  |
| CCOC(=O)/C(C#N)=N\Nc1cc(Cl)ccc1OC |  | active: 10 µM |
| Cc1cc(Br)ccc1SCC(=O)OCC(O)=C(C#N)c1nc2ccccc2[nH]1 | inactive: -14.9% |  |

| Structure (SMILES) | activity, negative = active | Potency |
| --- | --- | --- |
| COc1cccc(NC(=O)C2CCCN(S(=O)(=O)c3cccc4nonc34)C2)c1 (stereo not given) | inactive: -19.7% |  |
| CN(CCCNC(=O)c1cc2c(Cl)nc3ccccc3c2s1)Cc1ccccc1 | inactive: -15.5% |  |
| Cc1ccc(C)c(NC(=O)C2CCCN(S(=O)(=O)c3c(C)noc3/C=C/N(C)C)C2)c1 (stereo not given) | inactive: 4.44% |  |
| CCN1CCN(c2cc(C)c3cc(NC(=O)c4cc(OC)cc(OC)c4)ccc3n2)CC1 | inactive: -19.3% |  |
| CCOC(=O)/C=c1\s/c(=C\c2ccc3cc(OC)ccc3c2)c(=O)n1CC(=O)NCc1ccc2c(c1)OCO2 | inactive: -3.27% |  |
| Cc1ccc(CCNC(=O)CCn2c(=O)c3cccn3c3ccc(F)cc32)cc1 | inactive: -8.92% |  |
| CC(=O)c1cccc(NC(=O)C2CCCN(S(=O)(=O)c3cccc4nonc34)C2)c1 (stereo not given) |  | active: 31.6 µM |
| CNc1nc(Cl)c(SC)c(N2CCOCC2)n1 | inactive: 30.5% |  |
| O=C(C1=C[C@@H](c2ccc(C(F)(F)F)cc2)C[C@@H](OCc2ccc(CO)cc2)O1)N1CCN(Cc2ccccc2)CC1 | inactive: -0.412% |  |
| CC1CCCN(CCCNC(=O)c2cc3c(Cl)nc4ccccc4c3s2)C1 (stereo not given) | inactive: -16.4% |  |
| CCCNC(=O)c1ccc2c(c1)nc(C)n2-c1cccc(C)c1 | inactive: -3.21% |  |
| Cc1ccccc1N1C(=O)c2cccc3c(N(C)CCO)ccc(c23)C1=O |  | active: 12.6 µM |
| CC1=NNC(=O)c2ccccc2O1 | inactive: 34.4% |  |
| CCCCCCN1C[C@@H](O)[C@H](n2cc(COC(=O)c3ccccc3)nn2)C[C@@H]1c1ccc(Cl)cc1 | inactive: -12.8% |  |
| Cc1nc(-c2ccc(Cl)cc2)sc1C(=O)NNC(=O)C(C)C | inactive: 31.7% |  |
| CCCN(CCC)CCCNC(=O)c1cc2c(-c3ccc(OC)c(OC)c3)nn(C)c2s1 | inactive: 2.24% |  |
| Cc1cc(Br)ccc1SCC(=O)OC/C(O)=C(\C#N)c1nc2ccccc2[nH]1 |  | active: 25.1 µM |
| OCC1OC(n2cnc3c(NCc4ccco4)ncnc32)C(O)C1O (stereo not given) | inactive: 0.349% |  |
| CCCSc1ccc([C@@H]2[C@@H]3C(=O)N(CC)C(=O)[C@@H]3[C@]3(C(=O)OC)CCCCN23)cc1 | inactive: -5.97% |  |
| CCN1C(=O)[C@H]2[C@@H](c3ccc(-c4ccc(F)cc4)c(OC)c3)N3CCCC[C@@]3(C(=O)OC)[C@H]2C1=O | inactive: -13.8% |  |
| CCN1CCCC1CNc1ccc(S(C)(=O)=O)cc1[N+](=O)[O-] (stereo not given) | inactive: 19.8% |  |
| C=CCc1ccccc1OCC(O)CN1CCN(Cc2ccc3c(c2)OCO3)CC1 (stereo not given) | inactive: 6% |  |
| CC(C)[C@@H](N)C(=O)NCC1CCC(C(=O)N[C@@H](Cc2ccccc2)C(=O)O)CC1 (stereo not given in full) | inactive: 9.83% |  |
| COc1cc(NC(=O)c2cccc3c2C(=O)N(C2CCCCC2)C3)cc(OC)c1OC | inactive: 4.78% |  |
| COc1ccc(-c2csc(/C(C#N)=C(\O)CSc3nccn3C)n2)cc1OC | inactive: 2.68% |  |
| CC1=NOC(=O)/C1=C/c1ccc2c(c1)OCO2 | inactive: 7.08% |  |
| Cc1nnc(N2CCCC(C(=O)Nc3cc(F)ccc3F)C2)c2nn(-c3ccccc3)c(C)c12 (stereo not given) | inactive: -19% |  |

| Structure (SMILES) | activity, negative = active | Potency |
| --- | --- | --- |
| CN1c2ccccc2C(C)(C)[C@]12C=Cc1cc(O)ccc1O2 | inactive: -10.6% |  |
| Cc1c(C(=O)N2CCN(c3ccc(F)cc3)CC2)sc2nc3n(c(=O)c12)CCC3 | inactive: -0.517% |  |
| O=C(C[C@H]1C/C=C\CC[C@H](Cc2ccc(F)cc2)C(=O)O[C@@H](c2ccccc2)CNC1=O)N[C@H](CO)Cc1ccccc1 | inactive: 5.07% |  |
| Cc1oc2c(cc(NS(=O)(=O)c3ccc(C(C)C)cc3)c3ccccc32)c1C(=O)O | inactive: 2.06% |  |
| C=CC[C@@H](CC(=O)N[C@H](CO)Cc1ccccc1)C(=O)N[C@@H](COC(=O)[C@H](CC=C)CC(=O)OC(C)(C)C)Cc1ccccc1 | inactive: 3.05% |  |
| O=C(c1ccccc1)c1ccccc1C(=O)c1ccccc1 | inactive: 9.74% |  |
| COC(=O)Cc1c(O)ccn(CCc2c[nH]c3ccc(OC)cc23)c1=O | inactive: 23.9% |  |
| Cc1nc2nc(C)c(NS(=O)(=O)c3ccc(CC(C)C)cc3)c(=O)n2[nH]1 | inactive: 1.52% |  |
| Cc1ccc(NC(=O)CSc2nc3ccccc3nc2N2CCOCC2)cc1 | inactive: -7.54% |  |
| CCN1/C(=C/c2ccc3ccccc3[n+]2CC)C=Cc2ccccc21 |  | active: 12.6 µM |
| COc1ccccc1-n1c(-c2ccccc2)c[n+]2c1CCc1ccccc1-2 | inactive: 2.01% |  |
| COc1cccc(C2CC(c3ccccc3)=NN2S(=O)(=O)c2ccc(C)cc2)c1OC (stereo not given) |  | active: 25.1 µM |
| CC(C)(C)C(=O)Nc1ccc(N=Nc2ccccc2)cc1 | inactive: -2.31% |  |
| O=C(N[C@H]1C/C=C\C[C@H](CC(=O)N(CCO)Cc2ccccc2)C(=O)NC[C@H](c2ccccc2)OC1=O)OCC1c2ccccc2-c2ccccc21 | inactive: 1.47% |  |
| COc1ccc(N/C=C\C(=O)c2ccc(Br)cc2)cc1OC |  | active: 31.6 µM |
| O[C@@H]1C[C@H](c2ccc(Cl)cc2)N(Cc2cccs2)C[C@H]1n1cc(C2CC2)nn1 | inactive: 1.61% |  |
| CCN1C(=O)[C@H]2[C@@H](c3ccc(SC4CCCCC4)c(OC)c3)N3CCCC[C@@]3(C(=O)OC)[C@H]2C1=O | inactive: -0.118% |  |
| Cc1cc(/C=C2/SC(=O)NC2=O)c(C)n1-c1ccc(N2CCOCC2)cc1 | inactive: -2.11% |  |
| Cc1ccc2c(c1)N(C)/C(=C/c1cccc[n+]1C)S2 |  | active: 11.2 µM |
| COc1ccc(NC(=O)CSc2nc3c(oc4ccccc43)c(=O)n2Cc2ccco2)cc1Cl |  | active: 8.91 µM |
| Cc1ccc(N=C2NC(=O)/C(=C\c3cccs3)S2)cc1C | inactive: -14.1% |  |
| CCc1ccc(NC(=O)CSc2ccc(-c3ccccn3)nn2)cc1 | inactive: -2.74% |  |
| CC(=O)Oc1c(-c2ccc(Br)o2)oc2ccccc2c1=O |  | active: 12.6 µM |
| CCOC(=O)c1c(-c2ccc(OC)cc2)csc1/N=C/C1C(=O)CCCC1=O |  | active: 25.1 µM |
| C=CCN1C(=O)c2cccc3c(N4CCCCC4)ccc(c23)C1=O |  | active: 7.08 µM |
| CCCCCC(=O)N1C[C@@H](n2cc(COC(=O)c3ccccc3)nn2)[C@H](O)C[C@@H]1c1ccc(Cl)cc1 | inactive: -1.44% |  |
